Experimental data taken from the supplement of paper PMC10369915.
Some of the results follow. Rule as the data show it: active = 3.2 or more and inactive = the rest. Most of these values are background signal.

B1: PTPRF_Y450_Y450C_YF (peptide)
chain: RGFRVCFTPDS
B2: PTPRF_Y451_Y450C_YF (peptide)
chain: GFRVCYTPDSR
B3: PTPRF_Y451_YF (peptide)
chain: GFRVFYTPDSR
B4: PTPRN2_Y139_S140T (peptide)
chain: GSERRYTREGG
B5: PTPRR_Y249_Y249H (peptide)
chain: CLMILHRLKER
B6: PTPRT_Y1329 (peptide)
chain: RPQDGYRIVQH
B7: PTPRT_Y1329_R1324L (peptide)
chain: LPQDGYRIVQH
B8: PTPRT_Y412 (peptide)
chain: WEPFGYAVTRC

What follows are binders tested against SHP2 C-SH2 domain E139D (assay: enrichment score (SH2-bound / input frequency) (ratio); bacterial display of known human phosphotyrosine sites (pTyr-Var adds point mutants) read by sequencing; higher = stronger binding; tyrosines were phosphorylated by kinases first). Conditions: peptide library: pTyr-Var.
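Also: displayed peptides selected on beads carrying the immobilized SH2 domain, with library peptides lacking any tyrosine serving as negative controls.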

Enrichment score, inactive:
B1 0.644
B2 0.673
B3 1.38
B4 0.452
B5 1.33
B6 0.843
B7 0.655
B8 0.591

What follows are binders tested against SHP2 C-SH2 domain wild-type in the same assay as above. Conditions: peptide library: pTyr-Var.

Enrichment score, inactive:
B1 0.77
B2 0.82
B3 0.983
B4 0.412
B5 1.12
B6 0.635
B7 0.82
B8 0.737

Each binder was assayed against SHP2 N-SH2 domain L43F in the same assay as above. Conditions: peptide library: pTyr-Var.

Enrichment score, inactive:
B1 0.643
B2 0.75
B3 0.918
B4 0.306
B5 1.12
B6 0.655
B7 0.721
B8 0.671

These binders were tested against SHP2 N-SH2 domain T42A in the same assay as above. Conditions: peptide library: pTyr-Var.

Enrichment score, inactive:
B1 0.866
B2 0.557
B3 0.982
B4 0.353
B5 0.948
B6 0.509
B7 0.663
B8 0.536

The binders below were run against SHP2 N-SH2 domain T52S in the same assay as above. Conditions: peptide library: pTyr-Var.

Enrichment score, inactive:
B1 0.716
B2 0.558
B3 1.41
B4 0.435
B5 1.32
B6 0.573
B7 0.764
B8 0.603

The binders below were run against SHP2 N-SH2 domain wild-type in the same assay as above. Conditions: peptide library: pTyr-Var.

Enrichment score, inactive:
B1 1.02
B2 0.937
B3 1.16
B4 0.401
B5 0.938
B6 0.741
B7 0.849
B8 0.679
